Screen size: about 150,000 compounds; about 540 (0.36%) showed an effect of 50% or more. The list shows a part of the results.
These compounds were tested on Plasmodium falciparum (assay: Primary screen in NF54 nanoGlo assay, in single point, at 2uM, 72h; a lower Z score goes with more inhibition). Conditions: timepoint 72 hour.
Type: functional, Erythrocyte
For `Cc1cccc(C(=O)N2CCC(c3c[nH]cn3)CC2)c1C`, the “% Inhibition” value was 2% and the Z score was -0.2. In the case of `O=S(=O)(CCC(F)(F)F)NC[C@@H](c1ccco1)n1cccn1`, the “% Inhibition” value is reported as 5% and the Z score is reported as -0.7. `c1coc(-c2nc(CN3CCN(c4nccs4)CC3)cs2)c1` was tested, and the “% Inhibition” value was -4% and the Z score was 0.76. In the case of `Cc1ccc(C(=O)N2C[C@H]3CCC[C@@H](C3)C2)cc1O`, the “% Inhibition” value is reported as -15% and the Z score is reported as 1.37. For `CNC(=O)c1ccc(CN(C)[C@@H](C)c2ncc(C(C)(C)C)o2)o1`, the “% Inhibition” value was -1% and the Z score was 0.13. With `CCOc1ccc(CNC(=O)c2ccc(Oc3ncc(-c4ccc(C)cc4)cn3)cc2)cc1OCC` the “% Inhibition” value was -10% and the Z score was 1.81. In the case of `COC(=O)c1ccc(CN2CC3(C)CC2CC(C)(C)C3)cc1` (stereo not drawn), the “% Inhibition” value is reported as -6% and the Z score is reported as 0.89. `CC(C)Nc1ncc(CN(C)Cc2ncon2)cn1` was tested, and the “% Inhibition” value was -15% and the Z score was 2.32. For `Cc1cc(C)c(N2CC[C@H](NC(=O)c3ccoc3)C2=O)c(C)c1`, the “% Inhibition” value was -12% and the Z score was 1.09. With `CC(C)Cc1ccc(-c2n[nH]c(C(=O)N(C)C)n2)cc1` the “% Inhibition” value was -13% and the Z score was 2.28. With `Cc1cccnc1CNS(=O)(=O)c1cccc(C(=O)N[C@H]2CCOC2)c1` the “% Inhibition” value was -2% and the Z score was 0.28. In the case of `Cc1nc(CNCC(C)(C)c2ccc3ccccc3c2)[nH]c1C`, the “% Inhibition” value is reported as -3% and the Z score is reported as 0.33. With `Cc1ccc(-c2nnc(-c3cccnc3N3CCOCC3)o2)cc1` the “% Inhibition” value was -16% and the Z score was 1.55. For `O=C(Nc1cccc(C(F)(F)F)c1)c1cccnc1-c1cccs1`, the “% Inhibition” value was 0% and the Z score was -0.05. With `CC(C)c1cncnc1N1CCC2(CCC(=O)N(Cc3cccnc3)C2)CC1` the “% Inhibition” value was -6% and the Z score was 0.55. In the case of `Oc1cc(OCc2ccc(Cl)c(Cl)c2)ccc1-c1[nH]ncc1Oc1ccccc1Br`, the “% Inhibition” value is reported as -6% and the Z score is reported as 0.54. `CC(O)CC(C)CNC(C)c1ccc(Cl)cc1` (stereo not drawn) was tested, and the “% Inhibition” value was 7% and the Z score was -1.04. In the case of `CC(=O)NC1CN(CC2C(C)=CCCC2C)C1` (stereo not drawn), the “% Inhibition” value is reported as -13% and the Z score is reported as 1.97. For `Cc1cnccc1CNC(=O)NC1CCCC(C)CC1` (stereo not drawn), the “% Inhibition” value was 0% and the Z score was -0.02. In the case of `CCN1CCN(C[C@@H]2CN(c3ncnc4ccsc34)C[C@@H]2CO)CC1`, the “% Inhibition” value is reported as 2% and the Z score is reported as -0.35. With `NS(=O)(=O)N1CC[C@H](Oc2ccc(C(F)(F)F)cn2)C1` the “% Inhibition” value was -8% and the Z score was 1.11. `O=C1CN(C(=O)c2cccc3c2OCO3)c2ncccc2N1` was tested, and the “% Inhibition” value was 4% and the Z score was -0.83. `COCCOc1ccc(CN[C@@H](C(=O)OC(C)(C)C)c2ccccc2)cc1` was tested, and the “% Inhibition” value was -11% and the Z score was 1.4. With `O=C(NC1(c2csc(N3CCOCC3)n2)CCCC1)C(F)(F)F` the “% Inhibition” value was -11% and the Z score was 0.94. With `CCOc1ccc(CNC(=O)c2ccc(Oc3ccnc(-c4cccc(F)c4)n3)cc2)cc1OCC` the “% Inhibition” value was 2% and the Z score was -0.34. With `CO[C@H]1CC[C@@]2(OC)CCN(C(=O)c3ccc(-c4ccccc4)cc3)[C@H]2C1` the “% Inhibition” value was -10% and the Z score was 1.76. With `O=C(COc1ccc2ccccc2c1)Nc1ccc(-n2cnnn2)cc1` the “% Inhibition” value was -7% and the Z score was 0.85. In the case of `COc1cc(-c2nc(-c3ccc(-c4ccccc4)cc3)c(-c3ccccc3)[nH]2)ccc1OCc1ccccc1`, the “% Inhibition” value is reported as 12% and the Z score is reported as -1.95. For `CC[C@]1(C)NC(=O)N(CCCNc2ccncc2Cl)C1=O`, the “% Inhibition” value was 1% and the Z score was -0.17. In the case of `CCCNCc1cc(OCC)c(OCC#N)cc1Br`, the “% Inhibition” value is reported as -4% and the Z score is reported as 0.53. In the case of `O=C(Nc1ccc2c(c1)OCO2)C1CCN(C(=O)c2cc(Cl)c3c(c2)OCCCO3)CC1`, the “% Inhibition” value is reported as -38% and the Z score is reported as 4.46. With `CCn1nnc2ccc(-c3noc(-c4ccc(C)cc4)n3)cc21` the “% Inhibition” value was -19% and the Z score was 3.27. `CCn1nc(C)cc1C(=O)N[C@H](c1ccncc1)C1CC1` was tested, and the “% Inhibition” value was 2% and the Z score was -0.34. For `CC(CNC(=O)C1CCNC(=O)C1)c1cccc(C(F)(F)F)c1` (stereo not drawn), the “% Inhibition” value was -15% and the Z score was 2.17. With `Cc1ccc(NC(=O)Nc2ccc(F)c(-c3nnc(-c4ccccc4)o3)c2)cc1` the “% Inhibition” value was 14% and the Z score was -1.93. In the case of `CNC(=O)[C@@H]1C[C@@H](n2cc(C(C)(C)NC(=O)c3cc(F)ccc3C)nn2)CN1`, the “% Inhibition” value is reported as -7% and the Z score is reported as 0.9. In the case of `CCc1ccc(C(C)NC(=O)C(C)N2CCC(OCCN3CCCC3)CC2)cc1` (stereo not drawn), the “% Inhibition” value is reported as 12% and the Z score is reported as -1.48. For `O=C(c1cccc2c1CCC2)N(CCO)CCN1CCOCC1`, the “% Inhibition” value was -19% and the Z score was 2.05. In the case of `N#Cc1c(N)nc2c(c1-c1ccccc1OC(F)F)CNCC2`, the “% Inhibition” value is reported as -9% and the Z score is reported as 1.56. `O=C1C[C@H](c2ccc(OCc3ccc(F)cc3)cc2)c2sccc2N1` was tested, and the “% Inhibition” value was -11% and the Z score was 1.36. `Cc1ccc(S(=O)(=O)NCc2nc(-c3cccc(C#N)c3)c[nH]2)c(C)c1` was tested, and the “% Inhibition” value was -2% and the Z score was 0.31. In the case of `Cc1cnc(CN2C[C@H]3CCC[C@@H](C2)N(C)C3=O)cn1`, the “% Inhibition” value is reported as -6% and the Z score is reported as 0.82. For `COC(=O)c1ccccc1N(C)S(=O)(=O)c1ccc2c(c1)CCCC2`, the “% Inhibition” value was 2% and the Z score was -0.27. In the case of `CC[C@H](C)n1cc(C(=O)NCc2ccco2)c(=O)c(C(=O)N2CCc3ccccc3C2)c1`, the “% Inhibition” value is reported as 5% and the Z score is reported as -0.95. `COc1ncc(-c2nc(-c3cccc(F)c3)no2)c(C)n1` was tested, and the “% Inhibition” value was -15% and the Z score was 1.68. In the case of `O=C(Nc1n[nH]c(CCc2c[nH]c3ccccc23)n1)c1cccs1`, the “% Inhibition” value is reported as -9% and the Z score is reported as 1.67. For `O=C(c1ncc[nH]1)N1CC[C@H]2[C@H](CCC(=O)N2CCc2ccccc2)C1`, the “% Inhibition” value was -5% and the Z score was 0.5. `Cc1ccc(S(=O)(=O)N2CCC[C@H](CCC(=O)N3CCN(C)CC3)C2)cc1` was tested, and the “% Inhibition” value was -11% and the Z score was 1.59. For `NC(=O)COc1ccc(S(=O)(=O)N2C3CCC2CC(n2cccn2)C3)cc1` (stereo not drawn), the “% Inhibition” value was -18% and the Z score was 2.34. `CCN(CC)S(=O)(=O)c1ccc(C(N)=O)cc1` was tested, and the “% Inhibition” value was -8% and the Z score was 1.09. For `O=S1(=O)CCN(CCNc2nc(C3CCCCC3)ns2)CC1`, the “% Inhibition” value was 30% and the Z score was -3.35. `COc1cc(-n2cnnn2)c(Cl)cc1C(=O)N1CC[C@H](NC(C)=O)C1` was tested, and the “% Inhibition” value was 3% and the Z score was -0.37. In the case of `Cc1cc(CNC(=O)C(C)(C)C)ccc1F`, the “% Inhibition” value is reported as -5% and the Z score is reported as 0.66. `O=c1c2cc3c(nc2ncn1Cc1ccc(F)cc1)CCCC3` was tested, and the “% Inhibition” value was -10% and the Z score was 1.25. In the case of `CN(Cc1ccccc1)Cc1cn([C@H]2CO[C@H]3[C@@H]2OC[C@@H]3NC(=O)Nc2ccc(Oc3ccccc3)cc2)nn1`, the “% Inhibition” value is reported as 14% and the Z score is reported as -1.64. In the case of `CC1(C)CNC(=O)CN1C(=O)[C@H]1C[C@@H]1c1ccc(Cl)cc1`, the “% Inhibition” value is reported as 6% and the Z score is reported as -1.37. For `FC(F)(F)CCN(Cc1cnc2cnccn12)C1CCC1`, the “% Inhibition” value was -11% and the Z score was 1.5. For `O=C(NCCCN1CCCC1=O)Nc1ccn(-c2nccs2)n1`, the “% Inhibition” value was -2% and the Z score was 0.23. `Cc1noc(C)c1Cc1nc(C2(c3ccccc3)CC2)nn1CCCO` was tested, and the “% Inhibition” value was 7% and the Z score was -0.91. With `Cn1cc(CN2Cc3[nH]c4ccccc4c3C[C@H]2C(=O)O)cn1` the “% Inhibition” value was 3% and the Z score was -0.24. For `CCc1ccccc1NC(=O)C1CCN(c2ncnc3oc(C)c(C)c23)CC1`, the “% Inhibition” value was 8% and the Z score was -0.8. With `O=C1N[C@@]2(CCCCc3ccccc32)C(=O)N1Cc1cccc(C(F)(F)F)c1` the “% Inhibition” value was 4% and the Z score was -0.84. In the case of `CN1CC[C@@H](c2nc(-c3ccc(OC(F)F)cn3)no2)S1(=O)=O`, the “% Inhibition” value is reported as -15% and the Z score is reported as 2.77. For `O=C(NC[C@@H](c1ccco1)N1CCCC1)c1cncc(Br)c1`, the “% Inhibition” value was -8% and the Z score was 0.9. For `C[C@H](NS(C)(=O)=O)c1cccc(Cl)c1`, the “% Inhibition” value was -3% and the Z score was 0.37. In the case of `OCC[C@]1(NCc2sccc2Cl)CCOC1`, the “% Inhibition” value is reported as -9% and the Z score is reported as 1.2. With `Cc1cnc(CCNC(=O)C2CCC2)n1CC1CC1` the “% Inhibition” value was -15% and the Z score was 1.67. `Cc1cc(N2CCC(NC(=O)[C@]3(C)CCCN3C(=O)c3ccccc3)CC2)[nH]n1` was tested, and the “% Inhibition” value was -5% and the Z score was 0.9. In the case of `CCN(CC(=O)Nc1ccc2c(c1)OCCO2)C(=O)c1ccc(C)s1`, the “% Inhibition” value is reported as -3% and the Z score is reported as 0.62. With `CCCN1CCC(N2CCN(c3nc4c(C)cccc4cc3CO)CC2)CC1` the “% Inhibition” value was -7% and the Z score was 1.38. For `CCN(C(=O)c1cccc(-c2nc(OC)cc(OC)n2)c1)C1CCOCC1`, the “% Inhibition” value was -11% and the Z score was 2.07. For `Cc1ccc(S(=O)(=O)NC(=O)c2cccc(-c3noc(C4CC4)n3)c2)cn1`, the “% Inhibition” value was -19% and the Z score was 2.8. In the case of `Cc1nc(C#N)c(C#N)n1Cc1nc(-c2ccco2)no1`, the “% Inhibition” value is reported as 6% and the Z score is reported as -0.83. For `CCCc1sc(C(=O)Nc2nnn[nH]2)cc1CC`, the “% Inhibition” value was 7% and the Z score was -1.3. For `c1cc(-c2nc(-c3ccc4nncn4c3)no2)cs1`, the “% Inhibition” value was -15% and the Z score was 2.49. For `Cc1noc2nc(-c3ccccc3)cc(C(=O)N[C@H](c3ccc(Cl)cc3)c3nccn3C)c12`, the “% Inhibition” value was 19% and the Z score was -2.36. In the case of `Cc1ccc(CCN(C[C@H]2CCCO2)c2ccc3nnnn3n2)cc1`, the “% Inhibition” value is reported as -10% and the Z score is reported as 1.29. With `O=C(Nc1ccccc1)c1c([O-])n(-c2ccccc2)n[n+]1CCN1CCCCC1` the “% Inhibition” value was 2% and the Z score was -0.33. With `Cc1cc(NC(=O)c2cnc(OC3CCOCC3)c(Cl)c2)no1` the “% Inhibition” value was -5% and the Z score was 1.02. For `O=C(Nc1ccccc1F)c1nnc(COc2ccc(C(=O)N3CCCCCC3)cc2)s1`, the “% Inhibition” value was -34% and the Z score was 3.09. With `Cc1ncc(C(=O)NCCc2cscn2)c(O)c1Br` the “% Inhibition” value was -13% and the Z score was 1.28. `CN(C(=O)c1ccc(N2CCCCS2(=O)=O)cc1)C1CCCCC1O` (stereo not drawn) was tested, and the “% Inhibition” value was -10% and the Z score was 1.76. In the case of `Cn1ccnc1CN1CCOC[C@H](Oc2ccc(S(C)(=O)=O)cc2)C1`, the “% Inhibition” value is reported as -12% and the Z score is reported as 1.91. `Cc1nnc2c3ccc(Cl)cc3nc(N3CCC(Cc4ccccc4)CC3)n12` was tested, and the “% Inhibition” value was -4% and the Z score was 0.68.
